Measurements as given in patent US12559529B2, “NPY2 receptor agonists” (Boehringer Ingelheim International GmbH, priority 2019, dated 2026).
pKi: −log10 of the molar value. For part of these data: Part of at least one peptide drawing is inferred or uncertain, most often the ends. For part of these data: At least one structure is not confirmed: it was looked up by name or label, or the drawing left a doubt. *1 amine or outer side, *2 acyl side, *3 side chain or, on linkers, in order; H or OH if unused. Where a SMILES comes first, the peptide text is derived from it. Side-chain parts run from the residue outwards. The star is where a group is joined. C18 diacid = O=C(O)CCCCCCCCCCCCCCCCC(=O)*; γGlu = O=C(O)[C@H](CCC(=O)[*:2])N[*:1]; Isovaleryl = CC(C)CC(=O)*; AEEA = NCCOCCOCC(=O)O

Assays:
[1] = target: T1, Human Neuropeptide Y2 Receptor (Homo sapiens, UniProt P49146); test: Radioligand binding competition assay (RLB); conditions: Table 3; human 125I-PYY (1-36) 0.02 nM, Y2 receptor membranes
T1 construct: purchased CHEMICON HTS066M
T1 sequence (P49146 1-381): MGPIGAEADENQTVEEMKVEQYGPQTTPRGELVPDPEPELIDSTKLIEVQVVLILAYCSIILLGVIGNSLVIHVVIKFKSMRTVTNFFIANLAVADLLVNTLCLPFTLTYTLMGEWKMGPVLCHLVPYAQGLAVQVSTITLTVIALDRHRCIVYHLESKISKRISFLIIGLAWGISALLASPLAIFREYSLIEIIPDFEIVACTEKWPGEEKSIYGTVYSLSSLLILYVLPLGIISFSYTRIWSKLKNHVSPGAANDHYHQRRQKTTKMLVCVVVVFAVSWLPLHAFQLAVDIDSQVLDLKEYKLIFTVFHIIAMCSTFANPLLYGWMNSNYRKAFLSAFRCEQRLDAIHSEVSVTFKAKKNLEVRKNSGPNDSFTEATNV
Description: (§1) The filtration RLB assay was carried out in 96-well plates in a final volume of 100 μl per well. Freeze-dried test peptides were dissolved in 100% dimethyl sulfoxide (DMSO) to stock solutions of 1 mM and serial dilutions were performed in assay buffer (50 mM HEPES, 5 mM MgCl2, 1 mM CaCl2), pH 7.4) containing 0.2% ovalbumin. […] Next, 80 μL membranes (HTS066M, ChemiSCREEN™ Human Neuropeptide Y2 Receptor Membrane Preparation, CHEMICON) were added to each well to give a final protein concentration of 0.5 μg/well. The plates were sealed and incubated at room temperature for 2 hours in a plate shaker set at 400 rpm. The incubation was stopped by vacuum filtration onto 0.5% poly-ethylene amine (PEI) presoaked GF/C filters using a 96-well FilterMate™ harvester (Perkin Elmer) followed by four washes with 300 μl/well ice-cold wash buffer (50 mM HEPES, 500 mM NaCl, pH7.4). Filter plates were then dried for 60 min at room temperature and the bottom of the plates was sealed with backing tape UniFilter-96. Finally, 50 μl/well scintillation counter cocktail (Microscint20, Packard) was added and the radioactivity was counted in the Packard TopCount NXT scintillation counter. IC50 values (the half maximal inhibitory concentration of the agonist) were calculated by nonlinear regression analysis of sigmoidal dose-response curves.

normal NMRI mice = test: Effect on acute food intake in normal NMRI mice; type: in vivo; conditions: male NMRI mice, 10 nmol/kg subcutaneously once
Description: Male NMRI mice were obtained from Charles River (Charles River, Research Models & Services Germany GmbH) or from Jan Vier (Jan Vier Labs, France) at 5 weeks of age. […] Room temperature was controlled to 21° C.±1° C., with 60%+20% humidity.
Animals were transferred 5-7 days before the start of the study to a real-time food intake monitoring system, HM-2 system (MBRose, Denmark), to allow acclimatization to experimental conditions. As the animals were uniquely identified with microchips, each individual animal was identified by its microchip upon entry and exit from the food channel. Randomization of the mice for each study group (n=7-8) was based on body weight measured the day before the start of the study. A vehicle-treated (50 mM phosphate buffer pH7 with 5% Mannitol) group was included in each experiment. Six hours before the start of the night phase animals were fasted. One hour before the dark phase animals were dosed once subcutaneously (10 nmol/kg) with test peptide. […] The food intake of the treated groups was normalized (in %) to the average food intake of the group receiving vehicle (Table 7). Statistical significance was evaluated using One-way analysis of variance with Turkey's multiple comparison test. P<0.05 was considered statistically significant.

[2] = target: T1, Human Neuropeptide Y2 Receptor; test: Activity (RLB) after incubation in solutions at different pH values; type: binding; conditions: ratio of apparent Ki
Description: as §1
Peptides (as TFA salts) were weighed out in a filter unit (Mini-UniPrep Syringeless Filter 0.45 μm, Whatman), and 0.1 M sodium diphosphate buffer at pH 6.4 or 7.4, respectively, or 0.2 M TRIS buffer at pH 8.3 was added to achieve 10 mg/ml final concentration. The peptide was (partially) dissolved by shaking the filter unit horizontally at approx. 400 rpm for 2 hours at room temperature. The sample was filtered to remove any insoluble particles.

| SMILES | pKi [1] | Acute Food Intake 24 h [% vehicle] (normal NMRI mice) | RLB ratio (RLB6/RLB7) [2] | RLB ratio (RLB8/RLB7) [2] |
| --- | --- | --- | --- | --- |
| CC(C)CC(=O)N[C@@H](C)C(=O)N1CCC[C@H]1C(=O)N[C@@H](CCC(=O)O)C(=O)N[C@@H](CCCCNC(=O)COCCOCCNC(=O)COCCOCCNC(=O)CC[C@H](NC(=O)CCCCCCCCCCCCCCCCC(=O)O)C(=O)O)C(=O)N1C[C@H](O)C[C@H]1C(=O)N[C@@H](CCC(=O)O)C(=O)N[C@@H](CCC(=O)O)C(=O)N[C@@H](CC(=O)O)C(=O)N[C@@H](C)C(=O)N[C@@H](CO)C(=O)N1CCC[C@H]1C(=O)N[C@@H](CCC(=O)O)C(=O)N[C@@H](CCC(=O)O)C(=O)N[C@@H](CC(C)C)C(=O)N[C@@H](CCC(N)=O)C(=O)N[C@@H](CCCNC(=N)N)C(=O)N[C@@H](Cc1ccc(O)cc1)C(=O)N[C@@H](Cc1ccc(O)cc1)C(=O)N[C@H](C(=O)N[C@@H](CO)C(=O)N[C@@H](CC(C)C)C(=O)N[C@@H](CCCNC(=N)N)C(=O)N[C@@H](Cc1c[nH]cn1)C(=O)N[C@@H](Cc1ccc(O)cc1)C(=O)N[C@@H](Cc1ccc(O)cc1)C(=O)N[C@@H](CC(N)=O)C(=O)N[C@@H](Cc1c[nH]c2ccccc12)C(=O)N[C@@H](CC(C)C)C(=O)N[C@H](C(=O)N[C@@H](CCCNC(=N)N)C(=O)N[C@@H](CCC(N)=O)C(=O)N[C@@H](CCCNC(=N)N)C(=O)N[C@@H](Cc1ccc(O)cc1)C(N)=O)[C@@H](C)O)C(C)C [Compound 200, N{alpha-4}-(3-methylbutanoyl)-N{epsilon-7}-[2-(2-{2-[2-(2-{2-[(4S)-4-carboxy-4-(17-carboxyheptadecanamido)butanamido]ethoxy}ethoxy)acetamido]ethoxy}ethoxy)acetamido]-[4A,7K,8Hyp,9E,18Q,22V,28Y,30W,31L]hPYY (4-36)] | 8.63 |  |  |  |
| CC(C)CC(=O)N[C@@H](C)C(=O)N1CCC[C@H]1C(=O)N[C@@H](CCC(=O)O)C(=O)N[C@@H](CCCCNC(=O)COCCOCCNC(=O)COCCOCCNC(=O)CC[C@H](NC(=O)CCCCCCCCCCCCCCCCC(=O)O)C(=O)O)C(=O)N1CCC[C@H]1C(=O)N[C@@H](CCC(=O)O)C(=O)N[C@@H](CCC(=O)O)C(=O)N[C@@H](CC(=O)O)C(=O)N[C@@H](C)C(=O)N[C@@H](CO)C(=O)N1C[C@H](O)C[C@H]1C(=O)N[C@@H](CCC(=O)O)C(=O)N[C@@H](CCC(=O)O)C(=O)N[C@@H](CC(C)C)C(=O)N[C@@H](CCC(N)=O)C(=O)N[C@@H](CCCNC(=N)N)C(=O)N[C@@H](Cc1ccc(O)cc1)C(=O)N[C@@H](Cc1ccc(O)cc1)C(=O)N[C@H](C(=O)N[C@@H](CO)C(=O)N[C@@H](CC(C)C)C(=O)N[C@@H](CCCNC(=N)N)C(=O)N[C@@H](Cc1c[nH]cn1)C(=O)N[C@@H](Cc1ccc(O)cc1)C(=O)N[C@@H](Cc1ccc(O)cc1)C(=O)N[C@@H](CC(N)=O)C(=O)N[C@@H](Cc1c[nH]c2ccccc12)C(=O)N[C@@H](CC(C)C)C(=O)N[C@H](C(=O)N[C@@H](CCCNC(=N)N)C(=O)N[C@@H](CCC(N)=O)C(=O)N[C@@H](CCCNC(=N)N)C(=O)N[C@@H](Cc1ccc(O)cc1)C(N)=O)[C@@H](C)O)C(C)C [Compound 235, N{alpha-4}-(3-methylbutanoyl)-N{epsilon-7}-[2-(2-{2-[2-(2-{2-[(4S)-4-carboxy-4-(17-carboxyheptadecanamido)butanamido]ethoxy}ethoxy)acetamido]ethoxy}ethoxy)acetamido]-[4A,7K,9E,14Hyp,18Q,22V,28Y,30W,31L]hPYY (4-36)] | 8.98 |  |  |  |
| CC(C)CC(=O)N[C@@H](C)C(=O)N1CCC[C@H]1C(=O)N[C@@H](CCC(=O)O)C(=O)N[C@@H](CCCCNC(=O)COCCOCCNC(=O)COCCOCCNC(=O)CC[C@H](NC(=O)CCCCCCCCCCCCCCCCC(=O)O)C(=O)O)C(=O)N1CCC[C@H]1C(=O)N[C@@H](CCC(=O)O)C(=O)N[C@@H](C)C(=O)N1CCC[C@H]1C(=O)N[C@@H](C)C(=O)N[C@@H](CO)C(=O)N1CCC[C@H]1C(=O)N[C@@H](CCC(=O)O)C(=O)N[C@@H](CCC(=O)O)C(=O)N[C@@H](CC(C)C)C(=O)N[C@@H](CCC(N)=O)C(=O)N[C@@H](CCCNC(=N)N)C(=O)N[C@@H](Cc1ccc(O)cc1)C(=O)N[C@@H](Cc1ccc(O)cc1)C(=O)N[C@H](C(=O)N[C@@H](CCC(=O)O)C(=O)N[C@@H](CC(C)C)C(=O)N[C@@H](CCCNC(=N)N)C(=O)N[C@@H](Cc1c[nH]cn1)C(=O)N[C@@H](Cc1ccc(O)cc1)C(=O)N[C@@H](Cc1ccc(O)cc1)C(=O)N[C@@H](CC(N)=O)C(=O)N[C@@H](Cc1c[nH]c2ccccc12)C(=O)N[C@@H](CC(C)C)C(=O)N[C@H](C(=O)N[C@@H](CCCNC(=N)N)C(=O)N[C@@H](CCC(N)=O)C(=O)N[C@@H](CCCNC(=N)N)C(=O)N[C@@H](Cc1ccc(O)cc1)C(N)=O)[C@@H](C)O)C(C)C [Compound 29, N{alpha-4}-(3-methylbutanoyl)-N{epsilon-7}-[2-(2-{2-[2-(2-{2-[(4S)-4-carboxy-4-(17-carboxyheptadecanamido)butanamido]ethoxy}ethoxy)acetamido]ethoxy}ethoxy)acetamido]-[4A,7K,9E,10A,11P,18Q,22V,23E,28Y,30W,31L]hPYY (4-36)] (Isovaleryl-APEK([AEEA-AEEA-γGlu-C18 diacid])PEAPASPEELQRYYVELRHYYNWLTRQRY-NH2) |  | 63 % vehicle | 0.9 | 0.5 |
| CC(C)CC(=O)N[C@@H](C)C(=O)N1C[C@H](O)C[C@H]1C(=O)N[C@@H](CCC(=O)O)C(=O)N[C@@H](CCCCNC(=O)COCCOCCNC(=O)COCCOCCNC(=O)CC[C@H](NC(=O)CCCCCCCCCCCCCCCCC(=O)O)C(=O)O)C(=O)N1CCC[C@H]1C(=O)N[C@@H](CCC(=O)O)C(=O)N[C@@H](CCC(=O)O)C(=O)N[C@@H](CC(=O)O)C(=O)N[C@@H](C)C(=O)N[C@@H](CO)C(=O)N1CCC[C@H]1C(=O)N[C@@H](CCC(=O)O)C(=O)N[C@@H](CCC(=O)O)C(=O)N[C@@H](CC(C)C)C(=O)N[C@@H](CCC(N)=O)C(=O)N[C@@H](CCCNC(=N)N)C(=O)N[C@@H](Cc1ccc(O)cc1)C(=O)N[C@@H](Cc1ccc(O)cc1)C(=O)N[C@H](C(=O)N[C@@H](CO)C(=O)N[C@@H](CC(C)C)C(=O)N[C@@H](CCCNC(=N)N)C(=O)N[C@@H](Cc1c[nH]cn1)C(=O)N[C@@H](Cc1ccc(O)cc1)C(=O)N[C@@H](Cc1ccc(O)cc1)C(=O)N[C@@H](CC(N)=O)C(=O)N[C@@H](Cc1c[nH]c2ccccc12)C(=O)N[C@H](C(=O)N[C@@H](CC(C)C)C(=O)N[C@@H](CCCNC(=N)N)C(=O)N[C@@H](CCC(N)=O)C(=O)N[C@@H](CCCNC(=N)N)C(=O)N[C@@H](Cc1ccc(O)cc1)C(N)=O)[C@@H](C)O)C(C)C [Compound 194, N{alpha-4}-(3-methylbutanoyl)-N{epsilon-7}-[2-(2-{2-[2-(2-{2-[(4S)-4-carboxy-4-(17-carboxyheptadecanamido)butanamido]ethoxy}ethoxy)acetamido]ethoxy}ethoxy)acetamido]-[4A,5Hyp,7K,9E,18Q,22V,28Y,30W,31T,32L]hPYY (4-36)] | 7.87 |  |  |  |
